{"source": "PubChem BioAssay AID488969", "about": "(Vanderbilt High Throughput Screening Facility, 2010)", "note": "Whole data set: some 110,000 compounds, median “z-score” near -0.1, cut for the highest 2% near 2. The list shows a part of the results.", "data": [{"molecular_target": "Metabotropic glutamate receptor 8 (Rattus norvegicus) (UniProt P70579)", "sequence (P70579 whole entry, looked up)": "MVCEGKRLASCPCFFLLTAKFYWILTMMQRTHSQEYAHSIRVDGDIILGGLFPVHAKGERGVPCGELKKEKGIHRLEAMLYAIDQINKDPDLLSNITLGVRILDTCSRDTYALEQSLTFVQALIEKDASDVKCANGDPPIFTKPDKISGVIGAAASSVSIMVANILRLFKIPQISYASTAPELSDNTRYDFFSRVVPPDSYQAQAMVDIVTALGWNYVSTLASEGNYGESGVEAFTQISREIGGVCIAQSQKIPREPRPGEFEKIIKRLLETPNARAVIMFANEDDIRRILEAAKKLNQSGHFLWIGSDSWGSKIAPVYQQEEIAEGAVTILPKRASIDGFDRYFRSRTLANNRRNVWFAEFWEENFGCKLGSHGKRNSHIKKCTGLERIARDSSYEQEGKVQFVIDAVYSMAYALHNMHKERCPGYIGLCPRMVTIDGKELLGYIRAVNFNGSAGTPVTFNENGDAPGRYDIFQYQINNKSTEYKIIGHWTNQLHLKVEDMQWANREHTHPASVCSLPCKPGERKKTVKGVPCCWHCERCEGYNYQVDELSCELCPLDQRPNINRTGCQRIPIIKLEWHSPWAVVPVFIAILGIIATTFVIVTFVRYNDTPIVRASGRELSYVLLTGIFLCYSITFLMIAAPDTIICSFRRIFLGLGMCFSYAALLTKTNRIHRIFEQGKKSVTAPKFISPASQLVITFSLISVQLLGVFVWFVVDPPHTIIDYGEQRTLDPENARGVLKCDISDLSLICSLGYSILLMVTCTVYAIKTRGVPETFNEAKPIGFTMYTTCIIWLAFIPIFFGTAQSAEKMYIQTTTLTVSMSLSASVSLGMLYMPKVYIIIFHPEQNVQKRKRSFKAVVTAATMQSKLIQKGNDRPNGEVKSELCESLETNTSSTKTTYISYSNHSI", "test": "rat mGluR8 modulators via GIRK flux, primary screen, cell-based, thallium flux, HTS (AID 488969)", "details": "HEK293 rat mGluR8, GIRK (G protein-gated inwardly rectifying potassium channel) thallium flux, FluoZin2; at 10 µM; stronger effect = higher value; submaximal glutamate (EC20) added with thallium", "values": [{"smiles": "O=C1CC(=O)C(n2cncn2)C(c2ccc(Cl)cc2)C1", "note": "(stereo unspecified)", "z-score": 0.425}, {"smiles": "Cc1cc(NC(=O)Cc2cn3ccsc3n2)n(-c2ccccc2)n1", "z-score": 0.609}, {"smiles": "O=C1N/C(=N\\N=C\\c2cccs2)SC1Cc1ccc(Cl)cc1", "note": "(stereo unspecified)", "z-score": -0.295}, {"smiles": "OC(COc1ccc2ccccc2c1Br)Cn1ccnc1", "note": "(stereo unspecified)", "z-score": 0.596}, {"smiles": "Cn1c2ccccc2c2nnc(SCc3ccc4nonc4c3)nc21", "z-score": -0.104}, {"smiles": "CCOc1ccccc1CNCCO", "z-score": -0.212}, {"smiles": "O=C(C[n+]1ccc(C(=O)N/N=C/c2ccc(O)cc2)cc1)c1ccccc1", "z-score": -0.119}, {"smiles": "CSCCC1NC2(C(=O)Nc3c(C)cc(Cl)cc32)[C@@H]2C(=O)N(C3CCCC3)C(=O)[C@H]12", "note": "(stereo partly specified)", "z-score": -1.13}, {"smiles": "O=C(CN1CCCN(S(=O)(=O)c2ccc(Br)cc2)CC1)Nc1ccc2c(c1)OCO2", "z-score": -0.0432}, {"smiles": "N#C/C(C(=O)c1ccccc1)=C1/CCCN1", "z-score": -0.528}, {"smiles": "Cc1ccc(S(=O)(=O)N2CCOCC2)cc1NC(=O)COC(=O)CNC(=O)c1ccc(Oc2ccccc2)cc1", "z-score": 0.515}, {"smiles": "O=C1NC(=S)N/C1=C/c1cc([N+](=O)[O-])ccc1O", "z-score": 0.183}, {"smiles": "Cn1c(COc2ccccc2)nnc1SCCN1CCOCC1", "z-score": 0.807}, {"smiles": "COc1ccccc1NC(=O)Nc1nnc(-c2ccco2)s1", "z-score": -0.166}, {"smiles": "COc1ccc(N2CCN(S(=O)(=O)c3ccc(OC)cc3)CC2)cc1", "z-score": -0.166}, {"smiles": "COc1cc(C(=O)NC(=S)Nc2cccc(-c3cc4ccccc4oc3=O)c2)cc(OC)c1OC", "z-score": -0.405}, {"smiles": "O=C(/C=C/c1ccccc1)NC(=S)Nc1ccccc1C(=O)NC1CCCCC1", "z-score": -0.0243}, {"smiles": "Cc1cccc(NC(=O)c2cc3ccccc3o2)c1", "z-score": -1.37}, {"smiles": "COc1ccc(NC(=O)CN2CCN(C(=O)c3ccco3)CC2)c(OC)c1", "z-score": 0.598}, {"smiles": "C=CCOc1c(Cl)cc(CNCCC)cc1Cl", "z-score": 1.03}, {"smiles": "COc1ccc(-c2cc3n(n2)CCc2nc4ccccc4n2-3)cc1", "z-score": -0.684}, {"smiles": "Cc1ccc(S(=O)(=O)Nc2nc(C)cc(-n3nc(C)cc3C)n2)cc1", "z-score": -0.278}, {"smiles": "CCOC(=O)N1CCC(NC(=O)c2ccc3c(c2)N(Cc2ccc(F)cc2)CCS3)CC1", "z-score": -0.529}, {"smiles": "CCOC(=O)CC(NC(=O)C(CC)c1ccccc1)c1ccccc1Cl", "note": "(stereo unspecified)", "z-score": -0.105}, {"smiles": "Cn1c2c(c(=O)n(C)c1=O)C(CC(=O)Nc1ccccc1)C(=O)N2", "note": "(stereo unspecified)", "z-score": -0.0672}, {"smiles": "Cc1ccc(C(=O)/C=C/C(=O)O)cc1", "z-score": 0.845}, {"smiles": "CC(=O)n1nc(-c2ccco2)nc1N", "z-score": 0.38}, {"smiles": "N#Cc1c2n(c3c(=O)n(Cc4ccc(Cl)cc4)cnc13)CCCC2", "z-score": -0.29}, {"smiles": "CN1CCN(Cc2cc(=O)oc3cc4c(cc23)CCC4)CC1", "z-score": 0.745}, {"smiles": "Cc1ccc(Cn2nc(C)c(NC(=O)CCCn3nc(C)c([N+](=O)[O-])c3C)c2C)cc1", "z-score": -0.238}, {"smiles": "COC(=O)c1ccccc1NC(=O)CSc1nc(NC(=O)c2ccccc2)c2c(C)c(C)oc2n1", "z-score": -0.997}]}]}
